The source of these data is article PMC2685083 (Nucleic Acids Research, 2009).

Series [1] concerns the molecule itself. Kind of series: SEC.
Series [2] has as its target α catalytic subunit of Pol III (E. coli, UniProt P10443). Briefly: SPR. A general note: SPR reads the build-up and loss of mass on a sensor chip optically.

B1: β^C clamp, untagged homodimer (β lacking its C-terminal five residues M362-L366) (domain or fragment)
chain: not shown
For B1, the stoichiometry N (in general, a count of units in the complex or per binding partner) in series [1] was 2.

B2: his6-tagged β^C homodimer (domain or fragment)
chain: not shown
Regarding B2, in series [2], the Kd (commonly the constant that tells how readily two partners part at equilibrium) came to 1780 nM; the off-rate constant (koff) (as a rule, a measure of how fast the partners let go of each other) turned out to be 0.00423 s⁻¹; the kon (as a rule, the rate constant with which the complex forms) was 2380 M⁻¹ s⁻¹.
